# Reference: the supplement of paper PMC9151546
# Single values are uncertain, as repeats are few or missing.
# Columns and labels:
# CHO-K1 [1] = experiment: micronucleus frequency (% of nucleated events); higher = more micronuclei (genotoxic)
# CHO-K1 [2] = experiment: hypodiploid nuclei frequency (% of nucleated events); higher = more hypodiploid events (aneugenic)
# Description: (§1)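 Flow-cytometric in vitro micronucleus assay (Litron MicroFlow) in CHO-K1 cells in 96-well plates, 19 concentrations (4.5-200 µM, n=1 per concentration). Without S9, cells were exposed for 24 h and sampled at 48 h. With Aroclor 1254-induced rat liver S9, cells were exposed for 3-4 h and sampled at 27-28 h. Read-outs are %MN and %hypodiploid nuclei relative to nucleated events, and relative survival as the nuclei-to-bead ratio versus the 1% DMSO vehicle control (x100).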
# CHO-K1 [3] = experiment: relative survival (nuclei to bead ratio vs DMSO control) (% of vehicle control); higher = more surviving cells
# Description: as §1
# [4] = concentration: 4.48 (µM), S9 metabolic activation: with S9, exposure time: 3-4 hours
# [5] = concentration: 4.48 (µM), S9 metabolic activation: without S9, exposure time: 24 hours
# [6] = concentration: 5.6 (µM), S9 metabolic activation: with S9, exposure time: 3-4 hours
# [7] = concentration: 5.6 (µM), S9 metabolic activation: without S9, exposure time: 24 hours
# [8] = concentration: 7 (µM), S9 metabolic activation: with S9, exposure time: 3-4 hours
# [9] = concentration: 7 (µM), S9 metabolic activation: without S9, exposure time: 24 hours
# [10] = concentration: 8.75 (µM), S9 metabolic activation: with S9, exposure time: 3-4 hours
# [11] = concentration: 8.75 (µM), S9 metabolic activation: without S9, exposure time: 24 hours
# [12] = concentration: 10.9 (µM), S9 metabolic activation: with S9, exposure time: 3-4 hours
# [13] = concentration: 10.9 (µM), S9 metabolic activation: without S9, exposure time: 24 hours
# [14] = concentration: 13.7 (µM), S9 metabolic activation: with S9, exposure time: 3-4 hours
# [15] = concentration: 13.7 (µM), S9 metabolic activation: without S9, exposure time: 24 hours
# [16] = concentration: 17.1 (µM), S9 metabolic activation: with S9, exposure time: 3-4 hours
# [17] = concentration: 17.1 (µM), S9 metabolic activation: without S9, exposure time: 24 hours
# [18] = concentration: 21.4 (µM), S9 metabolic activation: with S9, exposure time: 3-4 hours
# [19] = concentration: 21.4 (µM), S9 metabolic activation: without S9, exposure time: 24 hours
# [20] = concentration: 26.7 (µM), S9 metabolic activation: with S9, exposure time: 3-4 hours
# [21] = concentration: 26.7 (µM), S9 metabolic activation: without S9, exposure time: 24 hours
# [22] = concentration: 33.4 (µM), S9 metabolic activation: with S9, exposure time: 3-4 hours
# [23] = concentration: 33.4 (µM), S9 metabolic activation: without S9, exposure time: 24 hours
# [24] = concentration: 41.7 (µM), S9 metabolic activation: with S9, exposure time: 3-4 hours
# [25] = concentration: 41.7 (µM), S9 metabolic activation: without S9, exposure time: 24 hours
# [26] = concentration: 52.2 (µM), S9 metabolic activation: with S9, exposure time: 3-4 hours
# [27] = concentration: 52.2 (µM), S9 metabolic activation: without S9, exposure time: 24 hours
# [28] = concentration: 65.2 (µM), S9 metabolic activation: with S9, exposure time: 3-4 hours
# [29] = concentration: 65.2 (µM), S9 metabolic activation: without S9, exposure time: 24 hours
# [30] = concentration: 81.5 (µM), S9 metabolic activation: with S9, exposure time: 3-4 hours
# [31] = concentration: 81.5 (µM), S9 metabolic activation: without S9, exposure time: 24 hours
# [32] = concentration: 102 (µM), S9 metabolic activation: with S9, exposure time: 3-4 hours
# [33] = concentration: 102 (µM), S9 metabolic activation: without S9, exposure time: 24 hours
# [34] = concentration: 127 (µM), S9 metabolic activation: with S9, exposure time: 3-4 hours
# [35] = concentration: 127 (µM), S9 metabolic activation: without S9, exposure time: 24 hours
# [36] = concentration: 159 (µM), S9 metabolic activation: with S9, exposure time: 3-4 hours
# [37] = concentration: 159 (µM), S9 metabolic activation: without S9, exposure time: 24 hours
# [38] = concentration: 199 (µM), S9 metabolic activation: with S9, exposure time: 3-4 hours
# [39] = concentration: 199 (µM), S9 metabolic activation: without S9, exposure time: 24 hours
# 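Throughout, for hypodiploid nuclei frequency (% of nucleated events): hypodiploid nuclei gated on a flow cytometer with 488 nm excitation after SYTOX Green staining, cultures at 37 °C, positive controls vinblastine without S9 and cyclophosphamide with S9.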
# 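Throughout, for micronucleus frequency (% of nucleated events): cells lysed with nuclei stained by SYTOX Green, then micronucleus-gated events counted against nucleated events by flow cytometry with 488 nm excitation.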
# 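Throughout, for relative survival (nuclei to bead ratio vs DMSO control): Lysed-cell nuclei stained with SYTOX Green and counted against counting beads by flow cytometry at 488 nm excitation, with vinblastine (no S9) and cyclophosphamide (plus S9) as positive controls.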
structure (smiles),measurement,setting,value
O=[N+]([O-])c1ccccc1 [Nitrobenzene],micronucleus frequency,CHO-K1 [1]; [4],0.74%
same,micronucleus frequency,CHO-K1 [1]; [5],1.56%
same,micronucleus frequency,CHO-K1 [1]; [6],1.28%
same,micronucleus frequency,CHO-K1 [1]; [7],1.46%
same,micronucleus frequency,CHO-K1 [1]; [8],0.72%
same,micronucleus frequency,CHO-K1 [1]; [9],1.2%
same,micronucleus frequency,CHO-K1 [1]; [10],1.02%
same,micronucleus frequency,CHO-K1 [1]; [11],1.6%
same,micronucleus frequency,CHO-K1 [1]; [12],0.66%
same,micronucleus frequency,CHO-K1 [1]; [13],1.6%
same,micronucleus frequency,CHO-K1 [1]; [14],0.86%
same,micronucleus frequency,CHO-K1 [1]; [15],1.5%
same,micronucleus frequency,CHO-K1 [1]; [16],1.14%
same,micronucleus frequency,CHO-K1 [1]; [17],1.24%
same,micronucleus frequency,CHO-K1 [1]; [18],0.72%
same,micronucleus frequency,CHO-K1 [1]; [19],1.22%
same,micronucleus frequency,CHO-K1 [1]; [20],1.02%
same,micronucleus frequency,CHO-K1 [1]; [21],0.94%
same,micronucleus frequency,CHO-K1 [1]; [22],0.52%
same,micronucleus frequency,CHO-K1 [1]; [23],1.14%
same,micronucleus frequency,CHO-K1 [1]; [24],1.16%
same,micronucleus frequency,CHO-K1 [1]; [25],1.2%
same,micronucleus frequency,CHO-K1 [1]; [26],1.86%
same,micronucleus frequency,CHO-K1 [1]; [27],1.26%
same,micronucleus frequency,CHO-K1 [1]; [28],0.64%
same,micronucleus frequency,CHO-K1 [1]; [29],1.18%
same,micronucleus frequency,CHO-K1 [1]; [30],1.02%
same,micronucleus frequency,CHO-K1 [1]; [31],1.2%
same,micronucleus frequency,CHO-K1 [1]; [32],1.46%
same,micronucleus frequency,CHO-K1 [1]; [33],1.36%
same,micronucleus frequency,CHO-K1 [1]; [34],0.72%
same,micronucleus frequency,CHO-K1 [1]; [35],1.28%
same,micronucleus frequency,CHO-K1 [1]; [36],0.62%
same,micronucleus frequency,CHO-K1 [1]; [37],1.4%
same,micronucleus frequency,CHO-K1 [1]; [38],0.86%
same,micronucleus frequency,CHO-K1 [1]; [39],2.24%
same,hypodiploid nuclei frequency,CHO-K1 [2]; [4],0.38%
same,hypodiploid nuclei frequency,CHO-K1 [2]; [5],0.86%
same,hypodiploid nuclei frequency,CHO-K1 [2]; [6],0.24%
same,hypodiploid nuclei frequency,CHO-K1 [2]; [7],0.72%
same,hypodiploid nuclei frequency,CHO-K1 [2]; [8],0.18%
same,hypodiploid nuclei frequency,CHO-K1 [2]; [9],0.72%
same,hypodiploid nuclei frequency,CHO-K1 [2]; [10],0.18%
same,hypodiploid nuclei frequency,CHO-K1 [2]; [11],1.02%
same,hypodiploid nuclei frequency,CHO-K1 [2]; [12],0.18%
same,hypodiploid nuclei frequency,CHO-K1 [2]; [13],0.86%
same,hypodiploid nuclei frequency,CHO-K1 [2]; [14],0.2%
same,hypodiploid nuclei frequency,CHO-K1 [2]; [15],0.84%
same,hypodiploid nuclei frequency,CHO-K1 [2]; [16],0.2%
same,hypodiploid nuclei frequency,CHO-K1 [2]; [17],0.74%
same,hypodiploid nuclei frequency,CHO-K1 [2]; [18],0.2%
same,hypodiploid nuclei frequency,CHO-K1 [2]; [19],0.72%
same,hypodiploid nuclei frequency,CHO-K1 [2]; [20],0.16%
same,hypodiploid nuclei frequency,CHO-K1 [2]; [21],1.7%
same,hypodiploid nuclei frequency,CHO-K1 [2]; [22],0.22%
same,hypodiploid nuclei frequency,CHO-K1 [2]; [23],3.48%
same,hypodiploid nuclei frequency,CHO-K1 [2]; [24],0.26%
same,hypodiploid nuclei frequency,CHO-K1 [2]; [25],1.42%
same,hypodiploid nuclei frequency,CHO-K1 [2]; [26],0.34%
same,hypodiploid nuclei frequency,CHO-K1 [2]; [27],0.94%
same,hypodiploid nuclei frequency,CHO-K1 [2]; [28],0.34%
same,hypodiploid nuclei frequency,CHO-K1 [2]; [29],1.12%
same,hypodiploid nuclei frequency,CHO-K1 [2]; [30],0.3%
same,hypodiploid nuclei frequency,CHO-K1 [2]; [31],1.14%
same,hypodiploid nuclei frequency,CHO-K1 [2]; [32],0.28%
same,hypodiploid nuclei frequency,CHO-K1 [2]; [33],1.34%
same,hypodiploid nuclei frequency,CHO-K1 [2]; [34],0.14%
same,hypodiploid nuclei frequency,CHO-K1 [2]; [35],1.22%
same,hypodiploid nuclei frequency,CHO-K1 [2]; [36],0.18%
same,hypodiploid nuclei frequency,CHO-K1 [2]; [37],1.52%
same,hypodiploid nuclei frequency,CHO-K1 [2]; [38],0.16%
same,hypodiploid nuclei frequency,CHO-K1 [2]; [39],1.98%
same,relative survival,CHO-K1 [3]; [4],117
same,relative survival,CHO-K1 [3]; [5],111
same,relative survival,CHO-K1 [3]; [6],135
same,relative survival,CHO-K1 [3]; [7],127
same,relative survival,CHO-K1 [3]; [8],131
same,relative survival,CHO-K1 [3]; [9],122
same,relative survival,CHO-K1 [3]; [10],130
same,relative survival,CHO-K1 [3]; [11],107
same,relative survival,CHO-K1 [3]; [12],102
same,relative survival,CHO-K1 [3]; [13],112
same,relative survival,CHO-K1 [3]; [14],116
same,relative survival,CHO-K1 [3]; [15],103
same,relative survival,CHO-K1 [3]; [16],121
same,relative survival,CHO-K1 [3]; [17],120
same,relative survival,CHO-K1 [3]; [18],89.6
same,relative survival,CHO-K1 [3]; [19],101
same,relative survival,CHO-K1 [3]; [20],151
same,relative survival,CHO-K1 [3]; [21],87.6
same,relative survival,CHO-K1 [3]; [22],117
same,relative survival,CHO-K1 [3]; [23],85.7
same,relative survival,CHO-K1 [3]; [24],128
same,relative survival,CHO-K1 [3]; [25],102
same,relative survival,CHO-K1 [3]; [26],120
same,relative survival,CHO-K1 [3]; [27],123
same,relative survival,CHO-K1 [3]; [28],111
same,relative survival,CHO-K1 [3]; [29],119
same,relative survival,CHO-K1 [3]; [30],130
same,relative survival,CHO-K1 [3]; [31],101
same,relative survival,CHO-K1 [3]; [32],105
same,relative survival,CHO-K1 [3]; [33],113
same,relative survival,CHO-K1 [3]; [34],117
same,relative survival,CHO-K1 [3]; [35],98.3
same,relative survival,CHO-K1 [3]; [36],103
same,relative survival,CHO-K1 [3]; [37],121
same,relative survival,CHO-K1 [3]; [38],97.9
same,relative survival,CHO-K1 [3]; [39],99.3
